Test results as given in the DeepSol protein solubility set.

Assay: soluble on expression in E. coli; label from the status in PepcDB or PDB records

Row | Sequence | soluble on expression in E. coli
1 | MQEQYRPEEIESKVQLHWDEKRTFEVTEDESKEKYYCLSMLPYPSGRLHMGHVRNYTIGDVIARYQRMLGKNVLQPIGWDAFGLPAEGAAVKNNTAPAPWTYDNIAYMKNQLKMLGFGYDWSRELATCTPEYYRWEQKFFTELYKKGLVYKKTSAVNWCPNDQTVLANEQVIDGCCWRCDTKVERKEIPQWFIKITAYADELLNDLDKLDHWPDTVKTMQRNWIGRSEGVEITFNVNDYDNTLTVYTTRPDTFMGCTYLAVAAGHPLAQKAAENNPELAAFIDECRNTKVAEAEMATMEKKGVDTGFKAVHPLTGEEIPVWAANFVLMEYGTGAVMAVPGHDQRDYEFASKYGLNIKPVILAADGSEPDLSQQALTEKGVLFNSGEFNGLDHEAAFNAIADKLTAMGVGERKVNYRLRDWGVSRQRYWGAPIPMVTLEDGTVMPTPDDQLPVILPEDVVMDGITSPIKADPEWAKTTVNGMPALRETDTFDTFMESSWYYARYTCPQYKEGMLDSEAANYWLPVDIYIGGIEHAIMHLLYFRFFHKLMRDAGMVNSDEPAKQLLCQGMVLADAFYYVGENGERNWVSPVDAIVERDEKGRIVKAKDAAGHELVYTGMSKMSKSKNNGIDPQVMVERYGADTVRLFMMFASPADMTLEWQESGVEGANRFLKRVWKLVYEHTAKGDVAALNVDALTENQKALRRDVHKTIAKVTDDIGRRQTFNTAIAAIMELMNKLAKAPTDGEQDRALMQEALLAVVRMLNPFTPHICFTLWQELKGEGDIDNAPWPVADEKAMVEDSTLVVVQVNGKVRAKITVPVDATEEQVRERAGQEHLVAKYLDGVTVRKVIYVPGKLLNLVVG | soluble
2 | SSVALIVGVTGIIGNSLAEILPLADTPGGPWKVYGVARRTRPAWHEDNPINYVQCDISDPDDSQAKLSPLTDVTHVFYVTWANRSTEQENCEANSKMFRNVLDAVIPNCPNLKHISLQTGRKHYMGPFESYGKIESHDPPYTEDLPRLKYMNFYYDLEDIMLEEVEKKEGLTWSVHRPGNIFGFSPYSMMNLVGTLCVYAAICKHEGKVLRFTGCKAAWDGYSDCSDADLIAEHHIWAAVDPYAKNEAFNVSNGDVFKWKHFWKVLAEQFGVECGEYEEGVDLKLQDLMKGKEPVWEEIVRENGLTPTKLKDVGIWWFGDVILGNECFLDSMNKSKEHGFLGFRNSKNAFISWIDKAKAYKIVP | soluble
